The values that follow come from PMC6212790.

The other results are listed elsewhere or left out. At the low end of the ranking the order means little.

The target of this assay is T1, GST-Rok (full length) (UniProt O34857).
T1 sequence: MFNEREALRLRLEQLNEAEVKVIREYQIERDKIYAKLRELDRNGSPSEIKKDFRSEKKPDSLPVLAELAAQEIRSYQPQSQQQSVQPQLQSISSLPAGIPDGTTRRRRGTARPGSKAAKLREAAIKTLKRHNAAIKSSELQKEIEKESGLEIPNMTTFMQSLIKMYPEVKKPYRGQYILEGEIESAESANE
Nature of the assay: protein binding microarray.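 Further: rank score from −0.5 (least bound) to 0.5 (best bound).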 The conditions noted are these: Rok is a gene silencer of Bacillus subtilis; high values mean tight binding; most listed sequences are background and not binding sites; double strand, one strand shown.
The sequence CTAAGGCC had a binding signal of -0.158 E-score.

On to CGTCAGCA, for which the binding signal was -0.192 E-score.

AAAACTGA showed a binding signal of 0.0676 E-score.

Take ACGGTCCG: the binding signal was -0.287 E-score.

In turn, ATGCTTCC came in with a binding signal of -0.335 E-score.

AAGACCGC showed a binding signal of -0.197 E-score.

As for GCTAAAAA, the binding signal amounted to 0.0922 E-score.

In turn, GAGCAGCC had a binding signal of -0.306 E-score.

Consider AGCGATCC, for which the binding signal is -0.305 E-score.

As to ATATAACC, the binding signal worked out at 0.224 E-score.

As to CTGTAAAC, the binding signal was determined as 0.0967 E-score.

Regarding CCCGGATC, the binding signal was -0.252 E-score.

Turning to AGAGTAAA, the binding signal was 0.18 E-score.

As to ATAGATCC, the binding signal is 0.234 E-score.

CGTTATAG: the binding signal was 0.0316 E-score.

In turn, GACCACAC registered a binding signal of -0.0733 E-score.

The sequence GTGGTTGA yielded a binding signal of 0.0508 E-score.

Consider GGTACCAA, for which the binding signal came to 0.233 E-score.

The sequence CAAATGTA showed a binding signal of 0.289 E-score.

As to CAAAGCTC, the binding signal was -0.0842 E-score.

On to CAACCAGG, for which the binding signal is -0.27 E-score.

CTCTCCCA: the binding signal is -0.272 E-score.

ACCGATAT returned a binding signal of 0.338 E-score.

CCAGAAGA yielded a binding signal of -0.12 E-score.

The sequence AGTGGCAG registered a binding signal of -0.029 E-score.

For GAGGGTAA, the binding signal is 0.0972 E-score.

As for CTGCGAGA, the binding signal was -0.11 E-score.

The sequence GGGAGTAC showed a binding signal of -0.259 E-score.

In turn, CATTGCCC registered a binding signal of -0.0965 E-score.

GTTTCCGA came in with a binding signal of -0.0265 E-score.

Sequence CTTCACGC yielded a binding signal of -0.281 E-score.

On to CCTTTCCA, for which the binding signal is -0.177 E-score.

For CAGACAGC, the binding signal was -0.095 E-score.

For the sequence CAATATTC, the binding signal turned out to be 0.21 E-score.

Consider CCACTAAA, for which the binding signal came out at 0.0654 E-score.

CATGTTGC had a binding signal of -0.0145 E-score.

As for CAGGGGGG, the binding signal is -0.383 E-score.

Sequence GGGGTGGA returned a binding signal of -0.361 E-score.

In turn, ACCCACTG yielded a binding signal of -0.1 E-score.

In turn, CACATCCC came in with a binding signal of -0.146 E-score.

In the case of ATCCCGCG, the binding signal was -0.00592 E-score.

In turn, GTGAGTCA returned a binding signal of -0.204 E-score.

Turning to ACGCCTGA, the binding signal was -0.0421 E-score.

For ATCAGTAC, the binding signal amounted to 0.085 E-score.

Sequence AGCAGTTA gave a binding signal of 0.00652 E-score.

ATTATGAC registered a binding signal of 0.0547 E-score.

Turning to ATGAACCA, the binding signal was -0.0368 E-score.

In turn, ATATAAAG came in with a binding signal of 0.17 E-score.

The sequence AAATGACT came in with a binding signal of 0.138 E-score.

AAACATCT gave a binding signal of 0.0882 E-score.

For the sequence ATTGATTA, the binding signal was 0.238 E-score.

Sequence GAAGCCCA registered a binding signal of -0.377 E-score.

AACGTCGC registered a binding signal of 0.134 E-score.

In the case of AGTCGAAG, the binding signal is -0.0264 E-score.

GACTTTCC showed a binding signal of -0.0947 E-score.

GGAAGTGA came in with a binding signal of -0.249 E-score.

CGGCCAAG came in with a binding signal of -0.205 E-score.

GTCAAAGA came in with a binding signal of 0.00723 E-score.

CTCGTAAG had a binding signal of 0.0913 E-score.

With ACCCAAAC, the binding signal was found to be 0.0222 E-score.

Take CGCAATTA: the binding signal amounted to 0.0544 E-score.

The sequence TGGACCCA came in with a binding signal of -0.244 E-score.

Turning to ATGCCCAT, the binding signal was -0.164 E-score.

The sequence CAGCTTGG had a binding signal of -0.178 E-score.

Take TGGTGACA: the binding signal turned out to be 0.0376 E-score.

In the case of TATAGTAA, the binding signal was found to be 0.389 E-score.

CAGCGAGA: the binding signal was -0.121 E-score.

ACAATAAG came in with a binding signal of 0.0497 E-score.

AGATTTAT gave a binding signal of 0.174 E-score.

AAAATGAA: the binding signal was -0.0184 E-score.

Turning to ACAGACTG, the binding signal is -0.268 E-score.

The sequence AACCCTTA showed a binding signal of -0.115 E-score.

For GCTCTCAC, the binding signal is -0.295 E-score.

With GACCGCTC, the binding signal was -0.154 E-score.

For the sequence CTACCGCC, the binding signal was found to be 0.0536 E-score.

Turning to AATTGTTA, the binding signal was found to be 0.308 E-score.

With TTAAGTAA, the binding signal was 0.255 E-score.

Turning to CATACAGC, the binding signal was -0.16 E-score.

CAACGGGC showed a binding signal of -0.269 E-score.

As for AAGGGTGA, the binding signal was -0.268 E-score.

For the sequence AAAGCAAA, the binding signal was determined as 0.0849 E-score.

Turning to AAATACCG, the binding signal worked out at 0.333 E-score.

Turning to ATAACATA, the binding signal came out at 0.365 E-score.

Turning to ATATGGTG, the binding signal is 0.0966 E-score.

Sequence TTCGTAAA displayed a binding signal of 0.145 E-score.

AGCCTTTG came in with a binding signal of -0.148 E-score.

ATGTTAAA: the binding signal was 0.185 E-score.

As for ATCAGTGC, the binding signal worked out at 0.00437 E-score.

For TATCAATA, the binding signal stood at 0.343 E-score.

The sequence ATCGGGAG came in with a binding signal of 0.0139 E-score.

As to CCTGGAAA, the binding signal was -0.077 E-score.

Turning to AACGATGG, the binding signal came to 0.125 E-score.

In the case of GTGCACTA, the binding signal is 0.131 E-score.

Regarding GTGACAGA, the binding signal was -0.439 E-score.

Sequence ATCCAGAG showed a binding signal of -0.133 E-score.

GTAACTAC returned a binding signal of 0.394 E-score.

CATCCGGC: the binding signal was -0.275 E-score.

Consider CCGAGGCC, for which the binding signal is -0.193 E-score.

As for GCGCAGAC, the binding signal was -0.232 E-score.

CTTGACGC yielded a binding signal of -0.252 E-score.

In turn, GAATATTA displayed a binding signal of 0.0406 E-score.

AAAAGGCT displayed a binding signal of -0.189 E-score.

On to ATATACTA, for which the binding signal was 0.409 E-score.

Consider AAATCTCA, for which the binding signal turned out to be 0.0339 E-score.

CATAAACA: the binding signal was 0.159 E-score.

For CTGGAGGC, the binding signal was -0.152 E-score.

Consider AGTCAAAT, for which the binding signal was -0.0451 E-score.

In the case of ATTGTGTG, the binding signal is 0.103 E-score.

Take CCTGAATC: the binding signal was -0.225 E-score.

On to GAGGTCTA, for which the binding signal is -0.168 E-score.

Take ACCTGGAA: the binding signal was 0.0618 E-score.

The sequence GTGCCCGA gave a binding signal of -0.167 E-score.

On to ATGTCCGG, for which the binding signal is -0.00967 E-score.

In turn, AGCATAAA yielded a binding signal of 0.211 E-score.

The sequence CAGGGCCG showed a binding signal of -0.319 E-score.

Sequence AGGCCAAG registered a binding signal of -0.151 E-score.

In turn, CCTGACTC yielded a binding signal of -0.309 E-score.

CCGAGGAA showed a binding signal of -0.198 E-score.

In the case of CGTGGCAG, the binding signal was -0.241 E-score.

On to GGTCGTAC, for which the binding signal was -0.00438 E-score.

With CAATAGAC, the binding signal was 0.089 E-score.

ACATGTGG: the binding signal came out at 0.0813 E-score.

GCTCTACC registered a binding signal of 0.0868 E-score.

Sequence TAAGCTAA returned a binding signal of 0.0385 E-score.

As to ATGCTACA, the binding signal was determined as 0.184 E-score.

The sequence GAAATAAA returned a binding signal of 0.221 E-score.

Sequence ATAGCTGC showed a binding signal of 0.0654 E-score.

In turn, AACGTCTT displayed a binding signal of -0.0871 E-score.

CTACGTTC returned a binding signal of 0.00208 E-score.

For the sequence ACGGTCTG, the binding signal was -0.0535 E-score.

For GATGCGAA, the binding signal was -0.102 E-score.

As to CGACGTAA, the binding signal stood at 0.153 E-score.

AAAAGGAC displayed a binding signal of -0.19 E-score.

The sequence CAACACCC returned a binding signal of -0.168 E-score.

As for ATCTGGTC, the binding signal was -0.135 E-score.

GAAGCTCC had a binding signal of -0.26 E-score.

With ATTAAAAA, the binding signal was -0.0974 E-score.

ATTGTGGA registered a binding signal of 0.0456 E-score.

As to TAGTGAGA, the binding signal is 0.0866 E-score.

In the case of ATCTTAAA, the binding signal is 0.0772 E-score.

For the sequence CTATAGAC, the binding signal was 0.152 E-score.

Regarding CCACGCAC, the binding signal was -0.277 E-score.

GCACGACC: the binding signal was -0.0837 E-score.

The sequence ACAACAAT registered a binding signal of 0.203 E-score.

Turning to GGGTGCAA, the binding signal turned out to be 0.0782 E-score.

Turning to AGGTAATG, the binding signal came out at 0.206 E-score.

On to CTAGTCTC, for which the binding signal came to 0.0165 E-score.

Sequence GCGGGGGA registered a binding signal of -0.288 E-score.

Regarding ATAGTCGC, the binding signal was 0.0388 E-score.

TCGGTTCA: the binding signal was -0.248 E-score.

The sequence CTCAGATA had a binding signal of 0.0362 E-score.

Take TATTCTCA: the binding signal worked out at 0.0885 E-score.

With CGTAGCGA, the binding signal is 0.0631 E-score.

For GTACTAGA, the binding signal came out at 0.29 E-score.

Turning to CATCGCGG, the binding signal was -0.0129 E-score.

AACGCCGG showed a binding signal of -0.187 E-score.

In turn, TCTACCCA came in with a binding signal of 0.264 E-score.

ACTATCTC registered a binding signal of 0.128 E-score.

In turn, GATTCTAC registered a binding signal of 0.393 E-score.

For the sequence GACTGTCA, the binding signal is -0.0917 E-score.

The sequence GCGGGCCC yielded a binding signal of -0.419 E-score.

CTGCATCA returned a binding signal of -0.0198 E-score.

With ACTTACAG, the binding signal was -0.0639 E-score.

In turn, ATACGAGC came in with a binding signal of 0.0276 E-score.

ACCATACC registered a binding signal of 0.107 E-score.

In turn, AGCTATTA yielded a binding signal of 0.283 E-score.

Regarding ATCCGCGG, the binding signal was -0.227 E-score.

In turn, AACATACG came in with a binding signal of 0.205 E-score.

The sequence CAACCGTA returned a binding signal of 0.00203 E-score.

Turning to CCCTTGAG, the binding signal was -0.161 E-score.

GGAGTGAC: the binding signal was -0.203 E-score.

On to ATTGGACC, for which the binding signal was -0.304 E-score.
